Data taken from paper PMC4336329 (PLoS ONE, 2015).
Screen size: about 310,000 compounds; about 14,000 (4.5%) showed an effect of 50% or more. The effect is printed as a negative number. The list shows a part of the results.

Target: human ether-à-go-go-related gene (hERG) potassium channel (human, UniProt Q12809)
Experiment: primary screen, population patch clamp on CHO cells stably expressing hERG
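Also: peak tail current of the secondary pulse compared with the same well before compound.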

human ether-à-go-go-related gene (hERG) potassium channel, sequence (Q12809 whole entry, looked up): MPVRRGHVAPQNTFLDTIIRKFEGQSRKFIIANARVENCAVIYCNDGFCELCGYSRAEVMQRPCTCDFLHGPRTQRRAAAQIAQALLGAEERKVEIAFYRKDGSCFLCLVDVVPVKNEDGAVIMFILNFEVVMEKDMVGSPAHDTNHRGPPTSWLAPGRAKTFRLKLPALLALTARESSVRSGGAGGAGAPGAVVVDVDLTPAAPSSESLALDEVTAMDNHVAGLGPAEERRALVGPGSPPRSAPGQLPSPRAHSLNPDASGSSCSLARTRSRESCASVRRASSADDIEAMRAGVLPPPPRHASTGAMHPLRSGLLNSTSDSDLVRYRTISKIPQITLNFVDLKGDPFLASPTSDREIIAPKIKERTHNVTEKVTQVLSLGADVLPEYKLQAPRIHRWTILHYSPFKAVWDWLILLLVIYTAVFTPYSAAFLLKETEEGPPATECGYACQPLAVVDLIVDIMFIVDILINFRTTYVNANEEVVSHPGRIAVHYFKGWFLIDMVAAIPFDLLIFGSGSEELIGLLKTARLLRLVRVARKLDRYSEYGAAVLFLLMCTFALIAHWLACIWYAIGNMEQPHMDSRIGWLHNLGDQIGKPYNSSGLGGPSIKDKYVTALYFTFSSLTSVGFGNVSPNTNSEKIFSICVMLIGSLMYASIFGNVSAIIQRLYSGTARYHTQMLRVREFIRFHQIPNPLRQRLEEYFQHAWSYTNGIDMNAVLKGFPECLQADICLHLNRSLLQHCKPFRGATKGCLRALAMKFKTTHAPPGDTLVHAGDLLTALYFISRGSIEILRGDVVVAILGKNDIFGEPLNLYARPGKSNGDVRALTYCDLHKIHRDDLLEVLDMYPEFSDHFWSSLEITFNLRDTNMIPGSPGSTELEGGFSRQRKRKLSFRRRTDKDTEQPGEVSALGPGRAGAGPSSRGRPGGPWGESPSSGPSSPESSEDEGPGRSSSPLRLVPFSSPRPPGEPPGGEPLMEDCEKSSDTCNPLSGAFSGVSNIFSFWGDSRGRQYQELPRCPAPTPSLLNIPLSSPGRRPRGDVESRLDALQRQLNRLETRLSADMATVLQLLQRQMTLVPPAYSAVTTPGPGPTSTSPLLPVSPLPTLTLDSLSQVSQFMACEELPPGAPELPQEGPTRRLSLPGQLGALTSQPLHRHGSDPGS

Compound | hERG current change (%, negative = inhibition) at 10uM [%]
C/C(=N/Nc1ccc(C(=O)O)cc1)c1ccc(O)c(O)c1O | 5.77
Cc1cccc(CCNS(=O)(=O)c2ccc(S(=O)(=O)N3CCCCC3)cc2)c1 | -0.315
C=C(C)C(=O)Nc1cccc(C2=NOC3(C2)C[C@@H](C(N)=O)N(C(=O)CCCCC)C3)c1 (some centres unmarked) | -23.8
CC(=O)NS(=O)(=O)c1ccc(N=NN2CCOCC2)cc1 | -1.2
O=C(NNC(=O)C1C2C=CC(C2)C1C(=O)O)c1ccccc1 (centres unmarked) | 26.2
O=C(NC1CCCC1)c1cc2c(ccc3ccccc32)o1 | 8.26
Cc1cccc(NS(=O)(=O)c2ccc(Br)s2)n1 | -3.96
Cc1sc2nc[nH]c(=S)c2c1-c1ccccc1 | 17.4
COc1cccc(C(=O)NOCc2ccccc2)c1OC | 0.772
Cc1ccc(S(=O)(=O)Oc2ccc(/C=N/NC(=O)c3ccncc3)cc2)cc1 | -3.34
COCCN(C(=O)COC(=O)c1cccc2ccccc12)c1c(N)n(Cc2ccccc2)c(=O)[nH]c1=O | -0.159
S=c1nc(-c2ccccc2Br)[nH][nH]1 | 18.9
CCCCOc1ccc(/C(O)=C2/C(=O)C(=O)N(CCCOC)C2c2ccncc2)cc1C (centres unmarked) | -5.25
Cc1cc2cc(CNC(=O)c3ccc(S(=O)(=O)N4CCOCC4)cc3)ccc2n1C | 13.1
COC(=O)c1cc(Br)cn1S(=O)(=O)c1ccccc1 | 10.4
COc1ccc(CC(=O)NNC(=O)Cc2ccc(OC)cc2)cc1 | 41.5
Cc1ccccc1C(=O)NCC(=O)OCCCOC(=O)CNC(=O)c1ccccc1C | 1.25
C=CCn1c(SCC(=O)Nc2ccc3c(c2)OCO3)nnc1-c1ccccc1OC | -7.02
CCCCn1c(N)c(N(CC)C(=O)c2ccc(C#N)cc2)c(=O)[nH]c1=O | 19.5

Compound | hERG current change (%, negative = inhibition) at 10uM [%]
COC(=O)C1CCN(C(=O)c2ccccc2NC(C)=O)CC1 | 16.8
Cn1c(=O)c2ncn(CC(=O)Nc3ccc4c5c(cccc35)CC4)c2n(C)c1=O | -0.241
Cc1c(-c2ccccc2)oc2c(C(=O)OCC(=O)Nc3cccc(F)c3)cccc2c1=O | -16.3
O=C(NC1CCSC1=O)C1CC(=O)N(c2ccc(F)cc2)C1 (centres unmarked) | 13.9
CC(CCc1ccccc1)NCc1cccc2ccccc12.O=C(O)C(=O)O (centres unmarked) | -60.9
Cc1cccc(/C(N)=N/OC(=O)Cc2cccc3ccccc23)c1 | 11.1
OC(CSc1ccccc1Cl)CN1CCN(c2ccccc2F)CC1 (centres unmarked) | -30.7
O=C(O)c1ccc(CSc2nc3ccc(N4C(=O)C5C6C=CC(C6)C5C4=O)cc3s2)cc1 (centres unmarked) | -23.6
CCc1ccc(N(C(=O)c2snc(C(N)=O)c2N)C(C(=O)NC2CCCC2)c2ccncc2)cc1 (centres unmarked) | 12.4
O=C(NC(=S)Nc1ccc2oc(-c3ccncc3)nc2c1)c1ccccc1F | 13.6
Cc1ccc(NC(=O)CSCC(=O)NC2(C)CCS(=O)(=O)C2)cc1 (centres unmarked) | 5.44
Cc1cc(-c2ccc(S(=O)(=O)N3CCN(c4ccccc4F)CC3)s2)on1 | 15.8
NNC(=O)Cn1c(COc2ccc(Cl)cc2)nc2ccccc21 | -9.34
Cc1ccc(NC(=O)COc2ccc(Br)cn2)cc1 | 15.9
Cc1oc(-c2ccccc2)nc1CN1C(=O)C(C)N=C(c2ccccc2F)c2cc(Cl)ccc21 (centres unmarked) | -5.78
O=C(NCC1CCCO1)C1c2ccccc2C(=O)N1C1CCCCCC1 (centres unmarked) | -10.5
CCCC1(C(=O)O)NC(c2cccc(OC)c2O)C2C(=O)N(c3ccccc3)C(=O)C21 (centres unmarked) | -1.3
COc1ccc(F)cc1CN1CCN(CC(=O)N2CCc3ccccc32)CC1 | -48.1
CCCOc1ccccc1N1C(=O)CC(N(O)c2ccccc2)C1=O (centres unmarked) | 7.17

Compound | hERG current change (%, negative = inhibition) at 10uM [%]
O=C(NCC1CCCO1)c1onc(CSc2ccc(Cl)cc2)c1C(=O)O (centres unmarked) | 14.4
Cc1cccc(NC(=O)c2cc(C)nc3ccccc23)c1 | 14.7
Cc1c(C(=O)N2CCN(C)CC2)oc2c1C(=O)CC(C)(C)C2 | 4.7
Cc1cc(OCc2cc(C(=O)NCc3cc(C(C)C)no3)no2)cc(C)c1Cl | 9.79
Cn1c(=O)c2c(ncn2C)n(C)c1=O | 10.1
O=C(NCCCN1CCCC1=O)c1ccc(S(=O)(=O)Nc2ccccc2)cc1 | 0.806
CCS(=O)(=O)N1Cc2ccccc2CC1C(=O)Nc1ccc(OC)cc1 (centres unmarked) | 6.83
CSc1cccc(NC(=O)CN(C)S(=O)(=O)c2ccc(C)cc2)c1 | -32.8
N#CC1=C(N)Oc2cc(O)ccc2C1C1CCCCC1 (centres unmarked) | 9.66
COc1ccc(N(CC(=O)N2CCCCC2)S(=O)(=O)c2ccccc2)c(OC)c1 | 2.74
COC(=O)c1cc(C)sc1NC(=O)C1CC(=O)NN1Cc1ccccc1 (centres unmarked) | -17.3
CC(=O)NN1C(=O)c2ccccc2NC1c1ccoc1 (centres unmarked) | 14.1
CCC1NC(=S)N(C2CCCCC2)C1=O (centres unmarked) | 2.1
Cc1ccc(S(=O)(=O)N2CCOC2CNC(=O)C(=O)NCCc2c[nH]c3ccccc23)cc1 (centres unmarked) | -27.2
COc1cc(C(CCN2CCCC(C)C2)c2c(OC)cc(OC)c3c(-c4ccccc4)cc(=O)oc23)cc(OC)c1OC (centres unmarked) | -38.7
CCOC(=O)c1sc(=NC(=O)c2ccc(F)cc2)n(C)c1C | 10.6
O=C(CNC(=O)c1ccco1)OCC(=O)c1ccc(Cl)cc1Cl | 5.54
Cc1ccccc1NC(=O)C1CCC(C)(C(=O)O)C1(C)C (centres unmarked) | 21.6
